Measurements published in article PMC13541613.
This is a selection; strong and weak results do not stand in their true shares. At the low end of the ranking the order means little.

What follows are sequences tested against ZNF721 DBD1 (UniProt Q8TF20-2) (assay: HT-SELEX). Details: 20 mM HEPES pH 7, 140 mM KCl, 5 mM NaCl, 1 mM K2HPO4, 2 mM MgSO4, 100 uM EGTA, ZnSO4, 0.1% Tween20; room temperature, 1 h; high values mean tight binding; double strand, one strand shown.
With AAACAGGGGT the binding signal (relative 10-mer count) was 0.000596. With ACAGCGTTTC the binding signal (relative 10-mer count) was 0.000229. With AAAGGAACAG the binding signal (relative 10-mer count) was 0.000596. CAAAAACAGC showed a binding signal (relative 10-mer count) of 0.000642. AATAAAACAG gave a binding signal (relative 10-mer count) of 0.000275. For CTCCCTCCCC, the binding signal (relative 10-mer count) was 0.00927. For CCCACCCGAC, the binding signal (relative 10-mer count) was 0.00449. With AAAAGCTATA the binding signal (relative 10-mer count) was 0.0882. Sequence ACAGCGTATC has a binding signal (relative 10-mer count) of 0.000413. For CACCGCCACC, the binding signal (relative 10-mer count) was 0.00339. GCCCACCACC showed a binding signal (relative 10-mer count) of 0.00688. ACAAAAACAG was tested, and the binding signal (relative 10-mer count) was 0.00078. In the case of AAAAACAGCC, the binding signal (relative 10-mer count) is reported as 0.000459. CACCCCCACC gave a binding signal (relative 10-mer count) of 0.0129. Sequence GGGTGGGGGA has a binding signal (relative 10-mer count) of 0.00885. Sequence AACCCACCCC has a binding signal (relative 10-mer count) of 0.00596. With ACGCTGTTTC the binding signal (relative 10-mer count) was 0.000459. AAACACTGTT showed a binding signal (relative 10-mer count) of 0.000367. Work on CAGTGTTACC yielded a binding signal (relative 10-mer count) of 0.000642. In the case of CCCCCGCTCC, the binding signal (relative 10-mer count) is reported as 0.0033. Sequence CGACCCACCC has a binding signal (relative 10-mer count) of 0.00477. With CCACCGCCCA the binding signal (relative 10-mer count) was 0.00477. With ACAGCATATC the binding signal (relative 10-mer count) was 0.000367. With GCTGTTTTTA the binding signal (relative 10-mer count) was 0.000321. AAACAGCACA gave a binding signal (relative 10-mer count) of 0.000596. AAACAGCGTT showed a binding signal (relative 10-mer count) of 0.000183. With CAGTGTTGCC the binding signal (relative 10-mer count) was 0.000321. In the case of CCCCCTCCCG, the binding signal (relative 10-mer count) is reported as 0.00573. AACAGCGTAC was tested, and the binding signal (relative 10-mer count) was 0.000963. In the case of AACAGAGTAC, the binding signal (relative 10-mer count) is reported as 0.000183. In the case of AAAACAGAGT, the binding signal (relative 10-mer count) is reported as 0.000321.

Each sequence was assayed against ZNF721 DBD2 (UniProt Q8TF20-2) (assay: HT-SELEX). Details: 20 mM HEPES pH 7, 140 mM KCl, 5 mM NaCl, 1 mM K2HPO4, 2 mM MgSO4, 100 uM EGTA, ZnSO4, 0.1% Tween20; room temperature, 1 h; high values mean tight binding; double strand, one strand shown.
For CCCCGACCCC, the binding signal (relative 10-mer count) was 0.000959. Sequence AAAAGCTATA has a binding signal (relative 10-mer count) of 0.000599. In the case of AACCCACCCC, the binding signal (relative 10-mer count) is reported as 0.000719. ATGAAGTGTA showed a binding signal (relative 10-mer count) of 0.000599. With ACCCGCCCCC the binding signal (relative 10-mer count) was 0.000719. CCCCCGCTCC showed a binding signal (relative 10-mer count) of 0.00144. Work on CCATCCCACC yielded a binding signal (relative 10-mer count) of 0.00575. Work on CCCCAGCCCC yielded a binding signal (relative 10-mer count) of 0.0018. Sequence CCCAGCCCCC has a binding signal (relative 10-mer count) of 0.000599. In the case of CAAAAAGCAG, the binding signal (relative 10-mer count) is reported as 0.172.
